From the supplement of paper PMC10441789
Some of the results follow. Antibody binding of pooled human sera (four to six donors per pool; dilution not stated) to peptides of the Trypanosoma cruzi antigen TSSA on microarrays. Quantile-normalised fluorescence in arbitrary units, mean of duplicate arrays; higher = more binding. No active / inactive call. The uninfected pools are read here as the healthy donors of the same country. The strongest signals lie near the top of the scale (about 60,000).

Assays:
Experiment in all cases: antibody binding signal (normalised fluorescence) (arbitrary fluorescence units); higher = stronger serum antibody binding to peptide
[1] = tested on: pooled sera of chronic Chagas disease patients, Argentina
Experimental: (§1)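 Microarray of 15-residue peptides over residues 30-55 of Trypanosoma cruzi TSSAII, each with 1 to 10 substitutions at naturally variable positions, probed with one serum pool per country.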

[2] = tested on: pooled sera of chronic Chagas disease patients, Bolivia
Experimental: as §1

[3] = tested on: pooled sera of chronic Chagas disease patients, Brazil
Experimental: as §1

[4] = tested on: pooled sera of chronic Chagas disease patients, Colombia
Experimental: as §1

[5] = tested on: pooled sera of chronic Chagas disease patients, Mexico
Experimental: as §1

[6] = tested on: pooled sera of chronic Chagas disease patients, USA
Experimental: as §1

[7] = tested on: pooled sera of uninfected people, Argentina
Experimental: as §1

[8] = tested on: pooled sera of uninfected people, Bolivia
Experimental: as §1

[9] = tested on: pooled sera of uninfected people, Brazil
Experimental: as §1

[10] = tested on: pooled sera of uninfected people, Colombia
Experimental: as §1

[11] = tested on: pooled sera of uninfected people, Mexico
Experimental: as §1

[12] = tested on: pooled sera of uninfected people, USA
Experimental: as §1

Row | Sequence | antibody binding signal [1] | antibody binding signal [2] | antibody binding signal [3] | antibody binding signal [4] | antibody binding signal [5] | antibody binding signal [6] | antibody binding signal [7] | antibody binding signal [8] | antibody binding signal [9] | antibody binding signal [10] | antibody binding signal [11] | antibody binding signal [12]
1 | GTDNKTATGEAPSQS | 15000 | 30800 | 34300 | 217 | 373 | 21800 | 171 | 531 | 1110 | 112 | 116 | 104
2 | SGKEKKPAAGGTPSP | 8400 | 927 | 4310 | 6090 | 7640 | 5670 | 173 | 144 | 845 | 124 | 91.8 | 235
3 | KEKKTAAGGTPSPSG | 258 | 189 | 149 | 3210 | 189 | 1490 | 94.5 | 85.1 | 647 | 159 | 105 | 110
4 | GKDNKTAAGGTPSPS | 677 | 203 | 185 | 3250 | 562 | 1380 | 133 | 109 | 196 | 192 | 164 | 125
5 | GKEKKPATGEAPSQS | 41300 | 10200 | 40100 | 5440 | 6880 | 31600 | 779 | 156 | 120 | 168 | 98.1 | 285
6 | GKDNKPAAGGTPSQS | 559 | 229 | 511 | 1310 | 1850 | 1020 | 252 | 459 | 388 | 193 | 187 | 98.6
7 | TSSTPPSGKEKKPAT | 17800 | 480 | 557 | 211 | 34900 | 301 | 642 | 675 | 101 | 250 | 92.3 | 191
8 | KDNKAATGEAPSPSG | 23500 | 28800 | 31100 | 176 | 231 | 23400 | 370 | 1010 | 195 | 182 | 90.6 | 156
9 | GKDNKAAAGETPSQP | 1390 | 756 | 31900 | 2360 | 2430 | 2250 | 174 | 349 | 96 | 197 | 91.7 | 112
10 | KDKKPAAGGAPSQPG | 168 | 214 | 1840 | 1610 | 153 | 170 | 92.6 | 76.4 | 132 | 81.6 | 75.4 | 106
11 | KKAATGGTPSQPGAS | 332 | 300 | 285 | 460 | 193 | 401 | 339 | 116 | 269 | 296 | 197 | 255
12 | TENKAATGEAPSQPG | 31400 | 42400 | 45300 | 208 | 187 | 29400 | 268 | 141 | 201 | 114 | 95.5 | 191
13 | ENKAAAGEAPSPSGA | 345 | 807 | 18800 | 255 | 161 | 13100 | 145 | 108 | 116 | 65.8 | 83.1 | 98.7
14 | SGTENKTAAGEAPSP | 34000 | 8850 | 15000 | 357 | 288 | 11600 | 510 | 305 | 207 | 314 | 187 | 176
15 | DNKPATGGAPSPSGA | 713 | 21500 | 5040 | 364 | 358 | 2980 | 373 | 981 | 683 | 238 | 330 | 163
16 | DNKAAAGGTPSPSGA | 481 | 311 | 457 | 3860 | 286 | 1190 | 211 | 393 | 2160 | 741 | 645 | 135
17 | GTDKKPAAGETPSPP | 388 | 1380 | 9350 | 6830 | 597 | 2210 | 134 | 355 | 163 | 208 | 538 | 349
18 | SSTPPSGTENKAAAG | 52800 | 48100 | 56000 | 456 | 6470 | 27600 | 3130 | 672 | 445 | 738 | 312 | 706
19 | SGKENKTATGGAPSP | 3490 | 914 | 17300 | 6760 | 4180 | 19400 | 7420 | 1850 | 138 | 337 | 632 | 174
20 | KENKAATGGAPSPSG | 322 | 224 | 1040 | 216 | 256 | 1610 | 239 | 103 | 173 | 96.2 | 83.1 | 221
